Source: the supplement of paper PMC11417369
± gives the standard deviation of the averaged measurements. The list shows a part of the results.

These sequences were tested on PfAP2-EXP AP2 domain (GST-tagged) (assay: gcPBM binding intensity (ln(normalized median fluorescence intensity)); higher = stronger DNA binding).
Summary of the method: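 Binding intensity is defined as the maximum Masliner-normalised natural-log median intensity across replicate spots for either probe orientation. It was measured on an Agilent 4 × 180k array of primer-extended double-stranded 36-bp intergenic genomic probes and negative controls, to which GST-tagged P. falciparum DNA-binding domains made in E. coli were applied for 1 h in 1× PBS with 1% milk, 0.2 mg/ml BSA, 0.5% salmon testes DNA and 0.03% Triton X-100. Detection was by Alexa488 anti-GST antibody and scanning at 488 nm.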
With “TTTATTTTTATTTAAAGTACATATCCATTTATTCCT [XGTACX_site1914]” the “gcPBM binding intensity (ln)” value was 8.57 ± 0.37. AAACAATATTCTCAAGTGCAAAAAGAAAAAAGAAAT was tested, and the “gcPBM binding intensity (ln)” value was 8.88 ± 0.4. In the case of “TACTTGTTATTAACATGTACAAAAAAAAAAAAAATT [XGTACX_site1338]”, the “gcPBM binding intensity (ln)” value is reported as 8.43 ± 0.5. With “AATGTACCCACACCCACACACAAACAAATATATATA [CACACA_site2751]” the “gcPBM binding intensity (ln)” value was 9.27 ± 0.64. In the case of “AGATTAAAATATATACGTACATATTATTAATTAATA [XGTACX_site3487]”, the “gcPBM binding intensity (ln)” value is reported as 8.58 ± 0.28. In the case of ATAGGATGCATATGAGTGCATTCTGTGTTGTTATAA, the “gcPBM binding intensity (ln)” value is reported as 8.36 ± 0.099. For “AAAAAAAAAATTAAATGTACACACACCTTAAACAAT [XGTACX_site3848]”, the “gcPBM binding intensity (ln)” value was 8.68 ± 0.45. In the case of “TAATGTATTATATTTTGTTTTCTTCCACCAAAAAAA [XGTACX_negctrl_site64]”, the “gcPBM binding intensity (ln)” value is reported as 8.71 ± 0.39. For “ACCCATATAATATATACACACATATATATATATATA [CACACA_site4731]”, the “gcPBM binding intensity (ln)” value was 9.94 ± 0.49. With “ATTTTCTTATATATATTTTGTATATATTTTGTACAT [CACACA_negctrl_site1496]” the “gcPBM binding intensity (ln)” value was 8.76 ± 0.45. For “TAAAAATTGAAGCACACACACAAAAGAAATACAATA [CACACA_site1113]”, the “gcPBM binding intensity (ln)” value was 8.97 ± 0.49. For “TTTTTTTTTACTTGTTGTACTTTTTCAAGGTATTGT [XGTACX_site7778]”, the “gcPBM binding intensity (ln)” value was 8.76 ± 0.49. In the case of “ATATAAAAAAATTGCACACATAAATAAATACAGATA [CACACA_site4806]”, the “gcPBM binding intensity (ln)” value is reported as 8.87 ± 0.29. With “ATATATATATATAATAAACACACAAATAGATATAAC [CACACA_site9234]” the “gcPBM binding intensity (ln)” value was 9.8 ± 0.24. For “TATATATATATATATACATGCATACATATACATACA [TGCATGCA_site897]”, the “gcPBM binding intensity (ln)” value was 10.2 ± 0.5. For “CTACCTTTAATATATACACACACATAAAAAAAATAT [CACACA_site8548]”, the “gcPBM binding intensity (ln)” value was 8.71 ± 0.45. For “AGATAAGATATATACACACACATAAATACGTACAAA [CACACA_site6639]”, the “gcPBM binding intensity (ln)” value was 9.14 ± 0.21. In the case of “ATTATATAGCTAAAAAAAATAAATTAAAAATATTAA [TGCATGCA_negctrl_site505]”, the “gcPBM binding intensity (ln)” value is reported as 8.21 ± 0.42. “ATATTTACAAGTAATAGTACAGTTAATTATATAAAA [XGTACX_site4856]” was tested, and the “gcPBM binding intensity (ln)” value was 8.34 ± 0.33. With “AATGTACAAATACGTACACACATATTTATATTTATA [CACACA_site6833]” the “gcPBM binding intensity (ln)” value was 8.5 ± 0.21. “AAGAATGTTATTAGTACACACAATTATTATAGAAAT [CACACA_site7714]” was tested, and the “gcPBM binding intensity (ln)” value was 8.54 ± 0.33. “TTTGGCTAGTTAGGCCGTACATGTAAATAATATATA [XGTACX_site1138]” was tested, and the “gcPBM binding intensity (ln)” value was 8.71 ± 0.13. With “TCCATATATGCCTTATGTACATATACCAAATTAACC [XGTACX_site6513]” the “gcPBM binding intensity (ln)” value was 8.98 ± 0.35. In the case of “AATAATAAAGTGAACACACACATATAACATCTATAT [CACACA_site7868]”, the “gcPBM binding intensity (ln)” value is reported as 8.46 ± 0.59. For AAAGGATTTATACTAGTGCAAAAATATAAAAATATA, the “gcPBM binding intensity (ln)” value was 8.73 ± 0.21. For “TTGGAAAAAGTGAAATGTACATATATATTTATTATT [XGTACX_site6946]”, the “gcPBM binding intensity (ln)” value was 8.63 ± 0.51. “AATGAATGTAAGAAAATACACACTAGTATAGTAACA [CACACA_site1955]” was tested, and the “gcPBM binding intensity (ln)” value was 8.76 ± 0.57. “GAAGTTTTTTAAAGATGTACTTTTTAAAAATAATCT [XGTACX_site263]” was tested, and the “gcPBM binding intensity (ln)” value was 8.24 ± 0.32. For “ACAAATACAAAAAAAGGTACACACATAATATATTTA [XGTACX_site5515]”, the “gcPBM binding intensity (ln)” value was 8.72 ± 0.51. In the case of “GACACAAAAAAATAATAATAATAATAATAATAAATA [XGTACX_negctrl_site145]”, the “gcPBM binding intensity (ln)” value is reported as 8.31 ± 0.49. For “AATATAAATACTCCTACACACATATATATATATATA [CACACA_site3010]”, the “gcPBM binding intensity (ln)” value was 10.1 ± 0.52. For “AAATATTTTATACTTGCACACAAAATATATTAAAAT [CACACA_site8606]”, the “gcPBM binding intensity (ln)” value was 8.45 ± 0.25. For “TTTGTTTTTAATTTCGCACACACCTTGTGGAAAAAA [CACACA_site577]”, the “gcPBM binding intensity (ln)” value was 8.7 ± 0.21. “TTCTTATAAATATACACACACAAAATATCTACAATG [CACACA_site6487]” was tested, and the “gcPBM binding intensity (ln)” value was 8.65 ± 0.42. With “TTATAAGATTTATGTACACACATATACTCACCTCTA [CACACA_site729]” the “gcPBM binding intensity (ln)” value was 8.51 ± 0.25. For “CCTTAAAATAAGATATGTACGCAAAGGAAAACAAAG [XGTACX_site6057]”, the “gcPBM binding intensity (ln)” value was 9.08 ± 0.48. In the case of “TGTGTAAGATCTTGGATGATGATAAGAATCTACTAG [CACACA_negctrl_site1167]”, the “gcPBM binding intensity (ln)” value is reported as 8.49 ± 0.56. With “TGCTATAATTTATATACACACAAATATATACGCATA [CACACA_site4096]” the “gcPBM binding intensity (ln)” value was 8.38 ± 0.36. In the case of TATGTATGTGCTTGTGCGCACCGATAATATAGCCAA, the “gcPBM binding intensity (ln)” value is reported as 8.865 ± 0.021. For “TCTCATAGTAGACACACACACACACGCACATATATA [CACACA_site6916]”, the “gcPBM binding intensity (ln)” value was 8.89 ± 0.49. In the case of “TTTTATGAAAAGTATTGTACGTATAATTTATATGTA [XGTACX_site1639]”, the “gcPBM binding intensity (ln)” value is reported as 8.32 ± 0.41. “ACATAAGACACAAATACACACAAAAATATGTAACAA [CACACA_site7836]” was tested, and the “gcPBM binding intensity (ln)” value was 8.59 ± 0.52. With “TATATAAATAGACACACACACACCTTATAATTACTA [CACACA_site7828]” the “gcPBM binding intensity (ln)” value was 8.7 ± 0.3. With “AAAAAAAAAAAACACACACACACATACACATACATA [CACACA_site2858]” the “gcPBM binding intensity (ln)” value was 8.56 ± 0.61. For “ATAATAATTAACCTATGTACATAGGAAAGTCATAAA [XGTACX_site4387]”, the “gcPBM binding intensity (ln)” value was 8.92 ± 0.62. “GAAGAAAAATAAAAAGTGCAAAAAAAGTAAAAATTT [GTGCAC_site9897]” was tested, and the “gcPBM binding intensity (ln)” value was 8.95 ± 0.49. In the case of “ATATATATATATAATTGTACATATAATATAATATTA [XGTACX_site5216]”, the “gcPBM binding intensity (ln)” value is reported as 9.99 ± 0.17. “AATATGTTATAAATATGTTATAAATAATAAATAAAT [GTGCAC_negctrl_site135]” was tested, and the “gcPBM binding intensity (ln)” value was 8.45 ± 0.47. For “AACACATGCTTGGTCACACACGTATGCATATTTAAA [CACACA_site5206]”, the “gcPBM binding intensity (ln)” value was 8.89 ± 0.41. “ATATATATTATATATAGTACTTTTTTGCGCAAATAT [XGTACX_site6849]” was tested, and the “gcPBM binding intensity (ln)” value was 8.71 ± 0.33. With “TATTTTTTTTTTTTTTTTTTTTTAAAACATATCAAT [CACACA_negctrl_site925]” the “gcPBM binding intensity (ln)” value was 7.95 ± 0.64. For “TAAAAAAAAAAAAAAAGTACACACATACATATAAAT [XGTACX_site3752]”, the “gcPBM binding intensity (ln)” value was 8.61 ± 0.44. For “ACAATGTCATTTGCTAGTACGCATATTGGTTGTAAA [XGTACX_site8924]”, the “gcPBM binding intensity (ln)” value was 8.63 ± 0.38. With “ATTTTTTTTTTTTTATGTACATATAGGTGCAAATCA [XGTACX_site6748]” the “gcPBM binding intensity (ln)” value was 9.09 ± 0.12. “TAATTATATATATACACACACATACAGACAAATAAA [CACACA_site3412]” was tested, and the “gcPBM binding intensity (ln)” value was 9.04 ± 0.46. For “GAAATTTGTTATTGCACACAAATTTTTCTTTTTTTA [CACACA_site2339]”, the “gcPBM binding intensity (ln)” value was 8.49 ± 0.28. “TCCTTTTTGAAATGTTGTACTTTTTTTATCTTTCAT [XGTACX_site953]” was tested, and the “gcPBM binding intensity (ln)” value was 8.73 ± 0.35.
